T1: RBFOX1 RRM RbFoxmut (Fox-RRM*) (Homo sapiens, UniProt Q9NWB1 109-208, R118D;E147R;N151S;E152T)
T1 sequence: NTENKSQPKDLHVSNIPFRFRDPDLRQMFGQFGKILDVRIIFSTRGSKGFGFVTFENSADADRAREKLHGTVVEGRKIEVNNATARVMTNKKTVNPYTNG

B1: ACAUUUC (DNA:RNA)
RNA: GGGAGACCGGAAUUCAGAUUGUCCACAUUUCUUAAAUCCCGUCGUAGCCACCA
DNA 1: CAATCTGAATTCCGGTCTCCC
DNA 2: TGGTGGCTACGACGGGATT
B2: UCUAACA (DNA:RNA)
RNA: B1 RNA with A25U, A27U, U28A, U29A, U30C, C31A
DNA 1: CAATCTGAATTCCGGTCTCCC
DNA 2: TGGTGGCTACGACGGGATT
B3: UCACAUG (DNA:RNA)
RNA: B1 RNA with A25U, U28C, U29A, C31G
DNA 1: CAATCTGAATTCCGGTCTCCC
DNA 2: TGGTGGCTACGACGGGATT
B4: GGUUGAU (DNA:RNA)
RNA: B1 RNA with A25G, C26G, A27U, U29G, U30A, C31U
DNA 1: CAATCTGAATTCCGGTCTCCC
DNA 2: TGGTGGCTACGACGGGATT
B5: UCGCCUA (DNA:RNA)
RNA: B1 RNA with A25U, A27G, U28C, U29C, C31A
DNA 1: CAATCTGAATTCCGGTCTCCC
DNA 2: TGGTGGCTACGACGGGATT
B6: CUAAGCU (DNA:RNA)
RNA: B1 RNA with A25C, C26U, U28A, U29G, U30C, C31U
DNA 1: CAATCTGAATTCCGGTCTCCC
DNA 2: TGGTGGCTACGACGGGATT
B7: CCCAAGA (DNA:RNA)
RNA: B1 RNA with A25C, A27C, U28A, U29A, U30G, C31A
DNA 1: CAATCTGAATTCCGGTCTCCC
DNA 2: TGGTGGCTACGACGGGATT
B8: UAUGCAG (DNA:RNA)
RNA: GGGAGACCGGAAUUCAGAUUGUCCUAUGCAGUUAAAUCCCGUCGUAGCCACCA
DNA 1: CAATCTGAATTCCGGTCTCCC
DNA 2: TGGTGGCTACGACGGGATT
B9: CUUCAUU (DNA:RNA)
RNA: B1 RNA with A25C, C26U, A27U, U28C, U29A, C31U
DNA 1: CAATCTGAATTCCGGTCTCCC
DNA 2: TGGTGGCTACGACGGGATT
B10: GUCUCGU (DNA:RNA)
RNA: B1 RNA with A25G, C26U, A27C, U29C, U30G, C31U
DNA 1: CAATCTGAATTCCGGTCTCCC
DNA 2: TGGTGGCTACGACGGGATT
B11: AUACAAU (DNA:RNA)
RNA: B1 RNA with C26U, U28C, U29A, U30A, C31U
DNA 1: CAATCTGAATTCCGGTCTCCC
DNA 2: TGGTGGCTACGACGGGATT
B12: CUAAUUC (DNA:RNA)
RNA: B1 RNA with A25C, C26U, U28A
DNA 1: CAATCTGAATTCCGGTCTCCC
DNA 2: TGGTGGCTACGACGGGATT
B13: UUGAACU (DNA:RNA)
RNA: B8 RNA with A26U, U27G, G28A, C29A, A30C, G31U
DNA 1: CAATCTGAATTCCGGTCTCCC
DNA 2: TGGTGGCTACGACGGGATT
B14: CAGGUAG (DNA:RNA)
RNA: B8 RNA with U25C, U27G, C29U
DNA 1: CAATCTGAATTCCGGTCTCCC
DNA 2: TGGTGGCTACGACGGGATT
B15: AGGACCC (DNA:RNA)
RNA: B1 RNA with C26G, A27G, U28A, U29C, U30C
DNA 1: CAATCTGAATTCCGGTCTCCC
DNA 2: TGGTGGCTACGACGGGATT
B16: UAUAACG (DNA:RNA)
RNA: B8 RNA with G28A, C29A, A30C
DNA 1: CAATCTGAATTCCGGTCTCCC
DNA 2: TGGTGGCTACGACGGGATT
B17: UGAAGCG (DNA:RNA)
RNA: B8 RNA with A26G, U27A, G28A, C29G, A30C
DNA 1: CAATCTGAATTCCGGTCTCCC
DNA 2: TGGTGGCTACGACGGGATT
B18: GACUUUG (DNA:RNA)
RNA: B1 RNA with A25G, C26A, A27C, C31G
DNA 1: CAATCTGAATTCCGGTCTCCC
DNA 2: TGGTGGCTACGACGGGATT
B19: GUUAGGC (DNA:RNA)
RNA: B1 RNA with A25G, C26U, A27U, U28A, U29G, U30G
DNA 1: CAATCTGAATTCCGGTCTCCC
DNA 2: TGGTGGCTACGACGGGATT
B20: GGAACUC (DNA:RNA)
RNA: B1 RNA with A25G, C26G, U28A, U29C
DNA 1: CAATCTGAATTCCGGTCTCCC
DNA 2: TGGTGGCTACGACGGGATT
B21: UUUGCCU (DNA:RNA)
RNA: B8 RNA with A26U, A30C, G31U
DNA 1: CAATCTGAATTCCGGTCTCCC
DNA 2: TGGTGGCTACGACGGGATT
B22: UCAGCGG (DNA:RNA)
RNA: B8 RNA with A26C, U27A, A30G
DNA 1: CAATCTGAATTCCGGTCTCCC
DNA 2: TGGTGGCTACGACGGGATT
B23: CCACCGC (DNA:RNA)
RNA: B1 RNA with A25C, U28C, U29C, U30G
DNA 1: CAATCTGAATTCCGGTCTCCC
DNA 2: TGGTGGCTACGACGGGATT
B24: AUGAGUG (DNA:RNA)
RNA: B1 RNA with C26U, A27G, U28A, U29G, C31G
DNA 1: CAATCTGAATTCCGGTCTCCC
DNA 2: TGGTGGCTACGACGGGATT
B25: ACAUGGU (DNA:RNA)
RNA: B1 RNA with U29G, U30G, C31U
DNA 1: CAATCTGAATTCCGGTCTCCC
DNA 2: TGGTGGCTACGACGGGATT
B26: CGAGGGG (DNA:RNA)
RNA: B8 RNA with U25C, A26G, U27A, C29G, A30G
DNA 1: CAATCTGAATTCCGGTCTCCC
DNA 2: TGGTGGCTACGACGGGATT
B27: CCCCGGA (DNA:RNA)
RNA: B1 RNA with A25C, A27C, U28C, U29G, U30G, C31A
DNA 1: CAATCTGAATTCCGGTCTCCC
DNA 2: TGGTGGCTACGACGGGATT
B28: UGGUGCU (DNA:RNA)
RNA: B1 RNA with A25U, C26G, A27G, U29G, U30C, C31U
DNA 1: CAATCTGAATTCCGGTCTCCC
DNA 2: TGGTGGCTACGACGGGATT
B29: GGGCCGC (DNA:RNA)
RNA: B1 RNA with A25G, C26G, A27G, U28C, U29C, U30G
DNA 1: CAATCTGAATTCCGGTCTCCC
DNA 2: TGGTGGCTACGACGGGATT
B30: CCAUCCG (DNA:RNA)
RNA: B1 RNA with A25C, U29C, U30C, C31G
DNA 1: CAATCTGAATTCCGGTCTCCC
DNA 2: TGGTGGCTACGACGGGATT
B31: AUCCCGG (DNA:RNA)
RNA: B8 RNA with U25A, A26U, U27C, G28C, A30G
DNA 1: CAATCTGAATTCCGGTCTCCC
DNA 2: TGGTGGCTACGACGGGATT

Changes are numbered by the printed parent chain; changes in the protein carry UniProt numbers. This is one part of the list.

The target of the assay is T1, RBFOX1 RRM RbFoxmut (Fox-RRM*). In words: EMSA; HiTS-Eq, 1 nM pool, 10 min; buffer printed only for the single-RNA assays: 10 mM Tris pH 7.5, 150 mM NaCl, 3.4 mM EDTA, 0.001% NP-40, 30 C. Conditions: tags: His6 N-terminal (pET28a); label: 5' 32P. An outline of the steps: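 A pool of RNA with 7 randomized nucleotides, 5′-radiolabelled and with DNA-annealed flanks, was equilibrated at 1 nM for 10 min in 50 µL with purified RbFox RRM, wild type or mutant, across increasing protein concentrations. Free RNA was separated by 8% native PAGE, excised, reverse-transcribed, barcoded by PCR and sequenced. Relative association constants were obtained from read-count changes of each RNA species versus the control reaction and normalised to the cognate motif.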
A general note: In EMSA bound probe runs differently from free probe, usually more slowly.
Consider B1, for which the binding signal was 0.0703 KA relative to UGCAUGU.

With B2, the binding signal is 0.0955 KA relative to UGCAUGU.

B3: the binding signal is 0.0943 KA relative to UGCAUGU.

As to B4, the binding signal was 0.113 KA relative to UGCAUGU.

For the molecule B5, the binding signal was 0.095 KA relative to UGCAUGU.

In the case of B6, the binding signal is 0.0832 KA relative to UGCAUGU.

As to B7, the binding signal was 0.0867 KA relative to UGCAUGU.

Take B8: the binding signal is 0.0975 KA relative to UGCAUGU.

As for B9, the binding signal was 0.11 KA relative to UGCAUGU.

Take B10: the binding signal is 0.292 KA relative to UGCAUGU.

Take B11: the binding signal is 0.0644 KA relative to UGCAUGU.

As for B12, the binding signal was 0.0596 KA relative to UGCAUGU.

On to B13, for which the binding signal was 0.108 KA relative to UGCAUGU.

B14: the binding signal is 0.135 KA relative to UGCAUGU.

Turning to B15, the binding signal was 0.0734 KA relative to UGCAUGU.

For B16, the binding signal is 0.106 KA relative to UGCAUGU.

Regarding B17, the binding signal was 0.1 KA relative to UGCAUGU.

With B18, the binding signal is 0.0901 KA relative to UGCAUGU.

As for B19, the binding signal was 0.074 KA relative to UGCAUGU.

Consider B20, for which the binding signal was 0.0537 KA relative to UGCAUGU.

Take B21: the binding signal is 0.122 KA relative to UGCAUGU.

As for B22, the binding signal was 0.0903 KA relative to UGCAUGU.

For B23, the binding signal was 0.0779 KA relative to UGCAUGU.

With B24, the binding signal is 0.287 KA relative to UGCAUGU.

On to B25, for which the binding signal is 0.126 KA relative to UGCAUGU.

As to B26, the binding signal is 0.0611 KA relative to UGCAUGU.

In the case of B27, the binding signal was 0.0951 KA relative to UGCAUGU.

In the case of B28, the binding signal is 0.109 KA relative to UGCAUGU.

On to B29, for which the binding signal is 0.116 KA relative to UGCAUGU.

Consider B30, for which the binding signal was 0.103 KA relative to UGCAUGU.

For the molecule B31, the binding signal was 0.0557 KA relative to UGCAUGU.

(Values after PMC9911399, “Two distinct binding modes provide the RNA-binding protein RbFox with extraordinary sequence specificity”.)
